Data: US12617771B2, “Diphenylpyrazole compound, and preparation method therefor and application thereof” (NORTHWEST A&F UNIVERSITY, priority 2021, dated 2026)
Where “and” joins values, the source holds several entries; their conditions need not be identical. Identical values can stand only once. At least one structure is not confirmed: it was looked up by name or label, or the drawing left a doubt. Some of these results come from one statement about several compounds together.

How the values were obtained:
Assay type in all cases: biochemical
[1] = target: Plutella xylostella GSTs; test: Inhibition of total GSTs enzyme of Plutella xylostella (CDNB method)
Protocol: (§1) Experiment: About 50 mg of larvae/nymphs of nine major pests such as Plutella xylostella, Mythimna separata, Pyrausta nubilalis, Chilo suppressalis, Nilaparvata lugens, Spodoptera frugiperda, Helicoverpa armigera, Carposina sasakii, Spodoptera litura were taken, grounded in a mortar pre-cooled at −80° C., and then 1 mL of 100 mM sodium phosphate buffer (1 mM EDTA, pH 7.2) was added and fully homogenized. The homogenate was transferred to a 1.5 mL centrifuge tube at 4° C., and centrifuged at 14,000 g for 30 minutes, and the supernatant was transferred to a new centrifuge tube as the GSTs total enzyme. The protein concentrations of the above total enzymes were determined using the BCA method.
(§2) 100 μL of PBS buffer (100 mM, pH 7.2) containing 1 mM GSH was taken and placed in a 96-well plate, 5 μg of insect total GSTs enzymes and an appropriate concentration of compounds PXG1-PXG29 (29 compounds) of the present invention were added to each well, after uniformly mixing, and allowed to stand at 30° C. for 10 min. Then 100 μL of PBS buffer (100 mM, pH 7.2) containing 1 mM CDNB was added to each well. Immediately after mixing, the mixture was placed in a microplate reader to measure the absorbance at a wavelength of 340 nm (A 340) once every 1 min, the measurement was carried out continuously for 5 min, the light absorption values of each measuring point were recorded and the inhibition rate in vitro of the compounds with different concentrations against insects total GSTs enzymes were calculated. Each group of assays was repeated three times, and total GSTs enzymes inactivated at 100° C. for 5 min were used as negative controls, and GTX was used as positive controls. GraphPad Prism 5 software was used for analysis and calculation of IC50. Relative inhibition was calculated using the following formula:
(§3) [formula] • wherein, A340 is the change of A340 within 5 minutes for the control group, and A340t is the change of A340 within 5 minutes for the experimental group.

[2] = target: Carposina sasakii GSTs; test: Inhibition of total GSTs enzyme of Carposina sasakii (CDNB method)
Protocol: as §1, §2, §3

[3] = target: Spodoptera litura GSTs; test: Inhibition of total GSTs enzyme of Spodoptera litura (CDNB method)
Protocol: as §1, §2, §3

[4] = target: Mythimna separata GSTs; test: Inhibition of total GSTs enzyme of Mythimna separata (CDNB method)
Protocol: as §1, §2, §3

[5] = target: Pyrausta nubilalis GSTs; test: Inhibition of total GSTs enzyme of Pyrausta nubilalis (CDNB method)
Protocol: as §1, §2, §3

[6] = target: Chilo suppressalis GSTs; test: Inhibition of total GSTs enzyme of Chilo suppressalis (CDNB method)
Protocol: as §1, §2, §3

[7] = target: Nilaparvata lugens GSTs; test: Inhibition of total GSTs enzyme of Nilaparvata lugens (CDNB method)
Protocol: as §1, §2, §3

[8] = target: Spodoptera frugiperda GSTs; test: Inhibition of total GSTs enzyme of Spodoptera frugiperda (CDNB method)
Protocol: as §1, §2, §3

[9] = target: Helicoverpa armigera GSTs; test: Inhibition of total GSTs enzyme of Helicoverpa armigera (CDNB method)
Protocol: as §1, §2, §3

SMILES | IC50 [1] | 100 μM Inhibition rate % [1] | IC50 [2] | 100 μM Inhibition rate % [2] | IC50 [3] | 100 μM Inhibition rate % [3] | IC50 [4] | 100 μM Inhibition rate % [4] | IC50 [5] | 100 μM Inhibition rate % [5] | IC50 [6] | 100 μM Inhibition rate % [6] | IC50 [7] | 100 μM Inhibition rate % [7] | IC50 [8] | 100 μM Inhibition rate % [8] | IC50 [9] | 100 μM Inhibition rate % [9]
O=C(NNC(=O)C1CCCC1)c1cc(-c2ccccc2)nn1-c1ccccc1 [PXG28, N′-(1,3-diphenyl-1H-pyrazol-5-yl-carbonyl) cyclopentyl carbohydrazide] | > 100 µM | 22.40% | > 100 µM | 49.51% | > 100 µM | 46.09% | > 100 µM | 55.24% | > 100 µM | 55.49% | 60.5 µM | 58.02% | > 100 µM | 45.44% | > 100 µM | 45.15% | > 100 µM | 23.64%
O=C(NNC(=O)c1cc(-c2ccc(Cl)cc2)nn1-c1ccccc1)c1cccnc1 [PXG7, N′-[3-(4-chlorophenyl)-1-phenyl-1H-pyrazol-5-yl-carbonyl]pyridin-3-yl-carbohydrazide] | > 100 µM | 15.46% | > 100 µM | 48.15% | > 100 µM | 57.87% | 36.1 µM | 61.50% | 47.2 µM | 63.59% | 18.3 µM | 70.09% | > 100 µM | 25.89% | > 100 µM | 45.78% | > 100 µM | 46.85%
O=C(NNC(=O)c1cc(-c2ccccc2)nn1-c1ccccc1)c1cccnc1O [PXG25, N′-(1,3-diphenyl-1H-pyrazol-5-yl-carbonyl)-2-hydroxypyridin-3-yl-carbohydrazide] | > 100 µM | 31.66% | > 100 µM | 48.54% | > 100 µM | 22.37% | > 100 µM | 31.23% | > 100 µM | 36.57% | > 100 µM | 51.03% | > 100 µM | 41.85% | > 100 µM | 15.80% | > 100 µM | 33.02%
O=C(NNC(=O)[C@@H]1COc2ccccc2O1)c1cc(-c2ccccc2)nn1-c1ccccc1 [PXG8, (2S)-N′-(1,3-diphenyl-1H-pyrazol-5-yl-carbonyl)-2,3-dihydro-1,4-benzodioxin-2-yl-carbohydrazide] | > 100 µM | 35.73% | > 100 µM | 19.83% | > 100 µM | 44.25% | > 100 µM | 38.06% | > 100 µM | 14.10% | > 100 µM | 29.11% | > 100 µM | 53.31% | > 100 µM | 35.01% | > 100 µM | 24.81%
CCOC(=O)NNC(=O)c1cc(-c2ccccc2)nn1-c1ccccc1 [PXG24, N′-(ethoxycarbonyl)-1,3-diphenyl-1H-pyrazol-5-yl-carbohydrazide] | > 100 µM | 29.72% | > 100 µM | 22.33% | > 100 µM | 28.38% | > 100 µM | 35.70% | > 100 µM | 44.66% | > 100 µM | 41.15% | > 100 µM | 42.77% | > 100 µM | 19.70% | > 100 µM | 35.93%
O=C(NNC(=O)c1cc(-c2ccccc2)nn1-c1ccccc1)c1cc(=O)[nH]c2ccccc12 [PXG22, N′-(1,3-diphenyl-1H-pyrazol-5-yl-carbonyl)-2-oxo-1,2-dihydroquinoline-4-yl-carbohydrazide] | 32.8 µM and 53 µM | 60.50% | > 100 µM | 42.76% and 42.77% | 43.1 µM | 56.09% |  | 60.97% | > 100 µM | 42.38% |  | 58.55% |  | 95.14% |  | 62.87% |  | 84.32%
CCn1c(C)nc2cc(C(=O)NNC(=O)c3cc(-c4ccccc4)nn3-c3ccccc3)ccc21 [PXG21, N′-(1-ethyl-2-methyl-1H-1,3-benzodiazol-5-yl-carbonyl)-1,3-diphenyl-1H-pyrazol-5-yl-carbohydrazide] | > 100 µM | 16.96% | > 100 µM | 35.52% | > 100 µM | 5.00% | > 100 µM | 18.46% | > 100 µM | 17.75% | > 100 µM | 11.87% | > 100 µM | −32.48% | > 100 µM | 0.49% | > 100 µM | 5.68%
O=C(NNC(=O)c1cc(-c2ccc(Cl)cc2)nn1-c1ccccc1)c1ccccn1 [PXG20, N′-[3-(4-chlorophenyl)-1-phenyl-1H-pyrazol-5-yl-carbonyl]pyridin-2-yl-carbohydrazide] | > 100 µM | −1.50% | > 100 µM | 10.99% | > 100 µM | 7.09% | > 100 µM | 30.36% | > 100 µM | 41.65% | > 100 µM | 25.43% | > 100 µM | −19.64% | > 100 µM | 32.18% | > 100 µM | −2.90%
CCC1(C)NC(=O)N(NC(=O)c2cc(-c3ccccc3)nn2-c2ccccc2)C1=O (stereo not drawn) [PXG13, N-(4-ethyl-4-methyl-2,5-dioxaimidazolin-1-yl)-1,3-diphenyl-1H-pyrazol-5-yl-carboxamide] | > 100 µM | 26.60% | > 100 µM | 25.90% | > 100 µM | 9.91% | > 100 µM | 40.68% | > 100 µM | 34.93% | > 100 µM | 46.18% | > 100 µM | 22.14% | > 100 µM | 19.41% | > 100 µM | 0.86%
Cc1csc(CC(=O)NNC(=O)c2cc(-c3ccccc3)nn2-c2ccccc2)n1 [PXG2, N′-[2-(4-methyl-1,3-thiazol-2-yl)acetyl]-1,3-diphenyl-1H-pyrazol-5-yl-carbohydrazide] |  | 69.27% | > 100 µM | 35.12% | > 100 µM | 57.13% | 18.1 µM and 15.7 µM | 90.46% |  | 64.92% | 42 µM and 47.9 µM | 52.60% |  | 91.51% |  | 64.72% | 40.2 µM and 52.1 µM | 57.53%
COc1ccc(C2(C)NC(=O)N(NC(=O)c3cc(-c4ccccc4)nn3-c3ccccc3)C2=O)cc1 (stereo not drawn) [PXG14, N-[4-(4-methoxyphenyl)-4-methyl-2,5-dioxaimidazolin-1-yl]-1,3-diphenyl-1H-pyrazol-5-yl-carboxamide] | > 100 µM | 10.33% | > 100 µM | 20.64% | > 100 µM | 2.49% | > 100 µM | 13.21% | > 100 µM | 10.91% | > 100 µM | 28.65% | > 100 µM | −17.12% | > 100 µM | 9.38% | > 100 µM | 12.41%
